According to paper PMC6212790:
The other results are listed elsewhere or left out. At the low end of the ranking the order means little.

These sequences were tested against T1, GST-Rok (full length) (UniProt O34857) (assay: protein binding microarray). Conditions: Rok is a gene silencer of Bacillus subtilis; high values mean tight binding; most listed sequences are background and not binding sites; double strand, one strand shown.
T1 sequence: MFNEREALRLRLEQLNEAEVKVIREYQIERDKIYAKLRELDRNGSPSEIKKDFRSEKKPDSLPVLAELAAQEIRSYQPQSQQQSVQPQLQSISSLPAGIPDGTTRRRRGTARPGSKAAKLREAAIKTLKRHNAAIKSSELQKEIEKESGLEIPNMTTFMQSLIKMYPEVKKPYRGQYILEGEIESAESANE
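Also: rank score from −0.5 (least bound) to 0.5 (best bound).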

Sequence | binding signal [E-score]
GAGTCGGA | -0.311
CTCAGTTC | -0.0174
CACTAGAC | -0.0531
AAGTTAAA | 0.0997
CAGGCCCG | -0.364
CAATTATC | 0.2
AGTGGGAC | -0.086
ATTACTCC | 0.196
CGCGTTTA | 0.0282
ACTATATG | 0.267
CAGCGCTC | -0.219
ATGCCAGC | -0.0477
AACGGTGT | 0.00756
GTATTCAC | 0.126
CATGATAA | 0.161
TAAGTGGA | 0.0175
TCAACGCA | -0.0585
ACTCTCGG | 0.03
CCGCTAAC | -0.0533
GATAAGGA | -0.0947
GCCTGACC | -0.402
AAAGTGTT | -0.111
AGAAGGAG | -0.22
AAACAGAT | 0.0639
CCTTACAC | -0.0855

Sequence | binding signal [E-score]
ACGCATCA | -0.00899
CAGGGGCC | -0.409
CATACGAA | -0.0152
GCTCGGGA | -0.35
AGTAAAGC | 0.0185
ACGAGGCC | -0.266
ATTCCAAT | 0.0568
ACTGCTGA | 0.13
GGAGCTTA | 0.0465
GCCCTGAC | -0.215
CTCATGGA | -0.0591
AAGTGTGC | -0.0693
GGTGAGCA | -0.105
AAGACACT | 0.0454
ACAAGGTG | -0.3
CAAGATGC | -0.122
AGTACCTA | 0.272
CCAGAGGA | -0.171
CAAGAACC | -0.184
ACTGTGTG | 0.0734
CACCTCTC | -0.197
AAATCCGC | -0.0635
GTACTGTA | 0.155
GGATTGCC | -0.234
CGGATCCG | -0.109

Sequence | binding signal [E-score]
AGCTAAGG | -0.0413
GTTCTCAA | 0.0738
CACATCAA | -0.0534
TACGTCGA | 0.183
ACTGTCTC | -0.235
ATAGAAAT | 0.337
ATAATGGG | 0.121
ATGTTATA | 0.35
TACCACTA | 0.239
AGGTCACT | -0.137
GAATCCGA | -0.084
AACAGATC | 0.0215
ACGTGGGA | -0.0675
AGAACAAA | -0.063
CAGGTGTA | -0.026
CTAACTCC | -0.0412
GGATATCC | 0.0574
GTTACTCA | 0.185
CGAGTCTC | -0.167
GAGCATAA | 0.144
ACCGCTAA | 0.0683
ACCACGGA | -0.00892
ACCCATGG | -0.165
CCCACGCG | -0.215
CGGATCAG | -0.0376

Sequence | binding signal [E-score]
AGAACTGG | 0.000129
CGATGTAG | 0.11
AAGTTGTA | 0.213
GTCTGGCA | -0.182
ATGAAGCG | -0.23
ATCCATAC | 0.0643
CATTTTAG | 0.0911
ACGAACGT | -0.103
GCGATGAA | 0.00908
GCATCATA | 0.156
AATGGCCG | -0.15
ATATTGGA | 0.241
GAATACCA | 0.0659
AATACACC | -0.000301
TCGAAAAA | -0.0412
CAGTAGCA | 0.193
ATCCCAAG | 0.0513
ATTGGTCC | -0.197
AACTGCCA | -0.116
GGAAGATA | 0.153
TCGGACCA | -0.0331
AGAGTCCA | -0.0784
ACTACCTA | 0.331
ATCATTGC | 0.131
AGGGTTAG | -0.254

Sequence | binding signal [E-score]
AAGAGACT | -0.103
AACTGTTC | 0.004
TACTCGAA | 0.228
AGGCGGAC | -0.278
AAACTTAC | 0.189
AATGCCTG | 0.0837
ATGGTAGC | 0.287
CGCTGCAC | -0.27
CACTGAGG | -0.226
TACGCCCA | -0.0998
ATCCAGAA | -0.0657
ATTCACAA | 0.0886
AAAAAGAT | 0.0439
ATAACTGC | 0.185
ATCTACTC | 0.251
TATAGGGA | 0.0939
ACTAGCAC | 0.138
CGCTGACA | 0.0318
CAACGTGA | -0.0485
ATACTCCG | 0.0778
ACATGTCT | -0.0723
TAAGTGCA | 0.0167
TAAAGGCA | -0.104
ACGCCTAA | -0.258
CTGAGAGC | -0.268

Sequence | binding signal [E-score]
GGGCTACC | -0.132
GGCGAAAC | -0.131
ATGTGCCG | 0.0643
CCCGGCCG | -0.162
ACGGTTCA | -0.0413
ACGCCTTA | 0.0389
CCTCGAGC | -0.104
ACTAAGTG | 0.0179
ATGACAGC | 0.00198
CGGTGACC | -0.284
CCGGAGTC | -0.322
ATACTGCA | 0.298
TACACGTA | 0.195
AGTCCAAC | -0.0561
ACCTGCGC | -0.0461
CTGTCTTC | -0.277
AAAATCAG | 0.106
AGAGGAGG | -0.296
ATACACAG | 0.0825
GCCATATA | 0.18
ATGCTTTG | 0.0578
CGACTCAA | 0.0945
GGCATACC | 0.045
CGGTCGTA | 0.216
TACCCTGA | -0.052

Sequence | binding signal [E-score]
AATACAAT | 0.24
GGTACCCA | -0.109
AAAGAATA | 0.138
GTGGCGAA | 0.00892
ATCCGCAC | -0.145
AAATTAAG | 0.27
CATCGCGC | -0.0288
CATGACTC | -0.00233
ATTCGGAG | 0.0824
CAATATGC | 0.0853
GGATTAAC | -0.112
CGCGGTAC | -0.199
TTATGCAA | 0.154
TACTGCGA | -0.0297
GAGGTAAC | -0.00277
ACGGGGAC | -0.339
AGCTGCAC | 0.104
GCTATAAC | 0.205
CGAGATCG | -0.00147
CCTTCGTC | -0.165
GATATCAC | 0.19
TGAGAAAA | 0.251
AAGAAAGC | -0.0725
CCGCTACC | -0.0157
ATCCAGCG | -0.0768

Sequence | binding signal [E-score]
ACACGGGT | -0.101
AGGATGAC | -0.0753
CGGGAAAC | -0.141
ACAAATCA | 0.104
CTTTCATA | 0.192
CTTTGGCC | -0.183
CGATCTGC | 0.0408
ATGTGCAA | -0.0284
CTATGCTA | 0.169
GCAAAAGC | -0.134
GGTTCATA | 0.0529
CAGAGATC | -0.124
TGCGCGAA | -0.0702
AGGAGAAG | -0.164
CAGTTACG | 0.0613
CGACGCTA | 0.166
CATAACCG | -0.0854
GCTTGGAC | -0.247
CTCTAGCC | -0.221
CGTGCTTA | 0.135
CTGCCCCA | -0.322
ATCCCTGC | -0.264
AAGGACAA | -0.0561
AACTTCGA | -0.0299
ATTACTAC | 0.355

Sequence | binding signal [E-score]
ATCTCAGC | -0.0883
AGTGTAAG | 0.113
ACGATGTC | 0.0937
ACATCCGA | -0.0189
TGGCAACA | -0.312
ACTATTTA | 0.303
ACTATGCT | 0.00675
CCTGCCGA | -0.246
ATTGTGTC | -0.195
TACAGATA | 0.208
CATGACGC | 0.0226
CGAGAAGC | -0.155
CAGACCGC | -0.277
TATCTTGA | 0.085
AGTCGCTG | -0.0206
CAGCTGCA | -0.00124
AAGGCGAA | -0.137
ACCACACC | -0.000947
CCCGTGTC | -0.333
CCCCAGTC | -0.341
GAAAATCC | 0.164
CATATTGA | 0.11
ATGCATGA | -0.0917
ACACCGCG | 0.0209
CTCCACGC | -0.113

Sequence | binding signal [E-score]
CCGGAAAC | -0.213
CGGAGTCC | -0.277
ACGTTGCC | 0.0165
AGATACGA | 0.213
AGCCCGTC | -0.195
ATTATGAG | 0.0335
GATCTGCC | -0.115
ACAAGGCT | -0.236
CCGTGACC | -0.161
GTTTTTGA | 0.0236
AATCGGGC | -0.367
CACCCGCG | -0.334
TCTAAAAA | -0.0064
AGGAAACG | -0.0572
ATCCCATG | -0.144
ACTTCGAT | 0.151
AAACGTGG | -0.243
CCCATCGC | -0.183
ACATGCCT | -0.0543
AAGTCCGA | -0.308
AGTGGGTG | 0.0012
TTGTGAAA | 0.0364
CGGAGGCA | -0.189
TGCAAACA | -0.0902
AAATCTAG | 0.35

Sequence | binding signal [E-score]
ATCAAATC | -0.055
GAACGTGA | 0.026
GCCATGCC | -0.26
GCCGGACC | -0.343
AGGCAGAG | -0.0172
ACATCAAC | 0.0258
AGACAGTG | -0.334
ACCGCCCC | -0.303
CGGCCTTC | -0.34
TATCACCA | 0.136
ACTGTGGG | -0.191
CAAAGTCA | -0.0714
AATGAACC | -0.0458
GTCTTTTA | 0.0851
AACAGGAT | 0.0137
ATACAGGA | 0.199
GCAGAACA | -0.0162
AGCTGGAA | 0.0247
TTCTCAAA | 0.0849
CACTAAAC | -0.0428
ACCACTTC | 0.0646
CCTCTTGC | -0.214
CAGGCTTC | -0.374
ATATTCTC | 0.277
AGGCCAAA | -0.303

Sequence | binding signal [E-score]
CCGATCTA | 0.24
ATAACAGG | -0.101
CCGATCTC | 0.0583
ACTCCATA | 0.119
AGGAAGGC | -0.32
TTCGACAA | 0.0753
TAGGCAGA | 0.0451
TACAAAAA | 0.035
CCTCGGCG | -0.381
AATCCCGC | -0.125
ATTACTTC | 0.256
ACCCCACC | -0.346
AATAAGCG | -0.0883
AGGATACT | 0.0415
ATGACGCC | -0.14
ACACGACC | 0.097
CCCTCCCG | -0.332
ACTTAACT | 0.223
CTTAGTGA | 0.0435
CAAAGCGG | -0.168
TGGAATAA | 0.159
CTAACGGA | 0.119
CACTTCGA | -0.128
CTTCAGCA | 0.0543
ACCAAACC | 0.00351

Sequence | binding signal [E-score]
CTCTTATC | -0.0673
AACTACCG | 0.417
CGGTTGTA | 0.29
AGCCGAAA | 0.113
ATAGGAAA | 0.207
AGACCTCT | -0.0672
ACTTACGC | 0.0872
GTTAATAA | 0.303
AGTGAGTC | -0.0276
CTGTATGC | -0.104
ACGGCATA | 0.0837
AAGCCATA | -0.0252
CAGGACAA | 0.0361
ATAAGTAT | 0.231
CCGCAGCG | -0.274
CTATTGAC | 0.183
CTATTAGA | 0.239
CGGTGTTC | -0.0645
CCGCGGCA | -0.15
AATATGCT | 0.0519
ATGAGGGA | -0.242
CGCGAAAA | 0.187
CAACGTTA | 0.127
CTCATTTA | -0.143
ACGTCTTG | -0.0198

Sequence | binding signal [E-score]
ACCCGTAG | -0.0701
CCGCCAGG | -0.416
AGGGCATG | -0.259
CGACCTTC | -0.238
CGGATTAC | 0.0502
CCGAGTAG | -0.151
ACTACGCG | 0.248
CCAGAGGG | -0.338
AGACCTCC | -0.292
CAGCTCCG | -0.168
CCGGTGTA | -0.0767
ACAATGTC | -0.0674
ATGAATTC | 0.179
CTCTGGAA | -0.053
AGCTGGCG | -0.0548
GCAACTAA | 0.228
GAGTAGGA | 0.119
CAGAGTAA | 0.0904
ATGCTAGA | 0.239
